Measurements from PubChem BioAssay (NCATS).
The inconclusive results got no clear call from the source; some entries with a clear call stand among them for comparison. For some of these results: A potency beside an inconclusive call is a rough fit, not a confirmed value. For some of these results: A note “side channel” means that the fit belongs to a control or component signal, not to the main read-out. Active and inactive are the calls of the source. Unless noted, the call rests on the fitted dose curve; in most records, active means well fitted curve in either direction with a large enough effect (not every such curve was filed as active); inconclusive means small, poorly fitted or top-dose-only effect, or another doubt; inactive means flat fitted curve, though single readings scatter.

Columns and labels:
[1] = AP1 Signaling Pathway (AID 357); settings: ME-180 AP-1-bla reporter, EGF-induced, beta-lactamase ratio, 5 h; at 17.2 µM (top of the series) unless noted;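 further: ME-180 reporter cells stimulated with EGF at its EC50 level; top concentration of the series differs between compounds; on the % scale 0 is the no-effect control and ±100 the full control effect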
Outline: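 First, ME-180 AP-1-bla cells were cultured overnight at 37 °C in low-serum Opti-MEM. Next, titrated compounds with EC50 EGF were incubated 5 hours. Finally, CCF4 was added for 2.5 hours and the 460/530 nm ratio recorded.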

[2] = NFAT Signaling Pathway (AID 444); settings: Jurkat NFAT-bla M1, carbachol, beta-lactamase ratio, 5 h; at 17.2 µM (top of the series) unless noted;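 further: carbachol stimulus at about its EC50 of 1 µM final; on the % scale 0 is the no-effect control and ±100 the full control effect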
Outline: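 Jurkat cells with NFAT-driven β-lactamase reporter and co-expressed M1 receptor, stimulated with carbachol (final 1 uM, ~EC50), compound titration, 5 h at 37 °C. CCF4 loaded 1 h at RT; 460/530 nm ratio gave %activity and AC50.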

[3] = Stat Signaling Pathway (AID 446); settings: ME-180 SIE beta-lactamase reporter, IL-6 stimulated, 5 h; at 7.69 µM (top of the series) unless noted;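 further: ME-180 cervical cancer cells given 40 pM IL-6 alongside compound; SIE-controlled beta-lactamase reporter measured as 460/530 nm FRET emission ratio; top concentration of the series differs between compounds; on the % scale 0 is the no-effect control and ±100 the full control effect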
Outline: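 FRET read-out (405 nm excitation, 460/530 nm emission) of a beta-lactamase reporter under a STAT-inducible element in ME-180 cervical carcinoma cells. Cells with compound receive 40 pM IL-6 for 5 h. Values are normalised to AC90 stimulation and AC90 JAK-inhibitor controls.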

[4] = biological target: Vitamin D3 receptor (Homo sapiens) (UniProt P11473); assay: qHTS for Inhibitors of the vitamin D receptor (VDR): Hit Validation in Primary Screen (AID 602199; active means well fitted curve in the direction sought with a large enough effect; inconclusive means small, poorly fitted or top-dose-only effect, or another doubt; inactive means no such curve, though single readings can be large; an effect the other way counts as inactive or inconclusive; further: potency means the concentration at half of the fitted maximal effect); settings: VDR-coactivator inhibition assay, qHTS confirmation
Chain of UniProt P11473 (P11473 whole entry, looked up, the tested form may be a part): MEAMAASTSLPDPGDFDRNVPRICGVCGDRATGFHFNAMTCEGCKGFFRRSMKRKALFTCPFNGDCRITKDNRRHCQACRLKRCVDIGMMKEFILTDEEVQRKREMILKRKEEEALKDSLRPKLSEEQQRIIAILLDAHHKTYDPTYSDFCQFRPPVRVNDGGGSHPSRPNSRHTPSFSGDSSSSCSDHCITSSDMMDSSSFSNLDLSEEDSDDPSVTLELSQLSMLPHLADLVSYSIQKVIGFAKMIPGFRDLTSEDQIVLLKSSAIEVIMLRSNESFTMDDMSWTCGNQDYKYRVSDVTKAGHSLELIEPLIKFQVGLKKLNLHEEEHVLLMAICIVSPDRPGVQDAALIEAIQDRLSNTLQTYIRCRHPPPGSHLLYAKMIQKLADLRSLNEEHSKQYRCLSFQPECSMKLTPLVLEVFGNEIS
Outline: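 Fluorescence polarization (Ex 620/Em 688 nm) of Alexa 647-SRC2-3 peptide with 800 nM VDR and 5 uM LG19078. Compounds at several concentrations, 2 h at room temperature.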

[5] = biological target: Vitamin D3 receptor (Homo sapiens) (UniProt P11473); assay: qHTS for Inhibitors of the vitamin D receptor (VDR): Hit Validation using a Fluorescein Assay (AID 602200; active means well fitted curve in the direction sought with a large enough effect; inconclusive means small, poorly fitted or top-dose-only effect, or another doubt; inactive means no such curve, though single readings can be large; an effect the other way counts as inactive or inconclusive; further: potency means the concentration at half of the fitted maximal effect)
Outline: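 Fluorescence polarization: 1.5 uM VDR-LBD, 5 uM LG19078 and 5 nM fluorescein-labeled SRC2-3 peptide (final) with compounds, 2 h at room temperature. Read at Ex 495/Em 520 nm; peptide-only wells served as control.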

[6] = qHTS for Inhibitors of the vitamin D receptor (VDR): Hit Validation using a Texas Red Assay (AID 602201; active means well fitted curve in the direction sought with a large enough effect; inconclusive means small, poorly fitted or top-dose-only effect, or another doubt; inactive means no such curve, though single readings can be large; an effect the other way counts as inactive or inconclusive; further: potency means the concentration at half of the fitted maximal effect)
Outline: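 Fluorescence polarization with 1.5 uM VDR-LBD, LG19078 and 7 nM Texas Red (final). After 2 hours at ambient temperature, read at Ex 595 nm/Em 615 nm.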

[7] = biological target: Vitamin D3 receptor (Homo sapiens) (UniProt P11473); assay: qHTS for Inhibitors of the vitamin D receptor (VDR): Hit Validation using a Beta-Lactamase Assay (AID 602202; active means well fitted curve in the direction sought with a large enough effect; inconclusive means small, poorly fitted or top-dose-only effect, or another doubt; inactive means no such curve, though single readings can be large; an effect the other way counts as inactive or inconclusive; further: potency means the concentration at half of the fitted maximal effect)
Outline: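 Stably transfected HEK293 cells expressing VDR-GAL4 DNA-binding domain fusion with UAS-driven beta-lactamase reporter, activated by agonist LG190178; compounds incubated 18 h, then FRET beta-lactam substrate 2 h; cleaved substrate read at 447 nm emission.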

[8] = qHTS for Inhibitors of the vitamin D receptor (VDR): Hit Validation using a Cytotoxicity Assay (AID 602204; active means well fitted curve in the direction sought with a large enough effect; inconclusive means small, poorly fitted or top-dose-only effect, or another doubt; inactive means no such curve, though single readings can be large; an effect the other way counts as inactive or inconclusive;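 further: cells co-treated with VDR agonist LG190178 at 300 nM; potency means the concentration at half of the fitted maximal effect; nearly all actives have a fitted effect of over 75% in size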)
Outline: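 Compounds stayed on cells (20,000/well, plated 4 hours earlier) for 18 hours. Viability then taken as ATP content by CellTiter-Glo, read as luminescence after 30 minutes. Controls: high-concentration cycloheximide (positive), DMSO (negative).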

[9] = qHTS Assay for Identification of Small Molecule Agonists for Hypoxia Response Element Signaling Pathway (AID 914; active means well fitted activation curve with a large enough effect in the signal ratio, with a control signal flat, not every such curve was filed as active; inconclusive means small, poorly fitted or top-dose-only effect, or effect the other way, or a change in a side signal; the % refers to the signal ratio; further: potency means the concentration at half of the fitted maximal effect); settings: ME-180 (cervical carcinoma) HRE-bla reporter, beta-lactamase ratio, CoCl2, 17 h; activation: active compounds read high
Outline: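 AC50 values come from titration-series %Activity, taken as the 460/530nm ratio of CCF4 fluorescence (excitation 405nm). CellSensor HRE-bla ME-180 cells were treated 17 hours at 37 C with compound plus an EC50 level of CoCl2.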

[10] = biological target: Bifunctional 3'-5' exonuclease/ATP-dependent helicase WRN (Homo sapiens) (UniProt Q14191); assay: qHTS for Inhibitors of WRN Helicase: Confirmatory Assay for Cherry-picked Compounds. (AID 720497; active means well fitted curve in the direction sought with a large enough effect; inconclusive means small, poorly fitted or top-dose-only effect, or another doubt; inactive means no such curve, though single readings can be large; an effect the other way counts as inactive or inconclusive; further: potency means the concentration at half of the fitted maximal effect; nearly all actives have a fitted effect of over 65% in size)
Chain of UniProt Q14191 (Q14191 whole entry, looked up): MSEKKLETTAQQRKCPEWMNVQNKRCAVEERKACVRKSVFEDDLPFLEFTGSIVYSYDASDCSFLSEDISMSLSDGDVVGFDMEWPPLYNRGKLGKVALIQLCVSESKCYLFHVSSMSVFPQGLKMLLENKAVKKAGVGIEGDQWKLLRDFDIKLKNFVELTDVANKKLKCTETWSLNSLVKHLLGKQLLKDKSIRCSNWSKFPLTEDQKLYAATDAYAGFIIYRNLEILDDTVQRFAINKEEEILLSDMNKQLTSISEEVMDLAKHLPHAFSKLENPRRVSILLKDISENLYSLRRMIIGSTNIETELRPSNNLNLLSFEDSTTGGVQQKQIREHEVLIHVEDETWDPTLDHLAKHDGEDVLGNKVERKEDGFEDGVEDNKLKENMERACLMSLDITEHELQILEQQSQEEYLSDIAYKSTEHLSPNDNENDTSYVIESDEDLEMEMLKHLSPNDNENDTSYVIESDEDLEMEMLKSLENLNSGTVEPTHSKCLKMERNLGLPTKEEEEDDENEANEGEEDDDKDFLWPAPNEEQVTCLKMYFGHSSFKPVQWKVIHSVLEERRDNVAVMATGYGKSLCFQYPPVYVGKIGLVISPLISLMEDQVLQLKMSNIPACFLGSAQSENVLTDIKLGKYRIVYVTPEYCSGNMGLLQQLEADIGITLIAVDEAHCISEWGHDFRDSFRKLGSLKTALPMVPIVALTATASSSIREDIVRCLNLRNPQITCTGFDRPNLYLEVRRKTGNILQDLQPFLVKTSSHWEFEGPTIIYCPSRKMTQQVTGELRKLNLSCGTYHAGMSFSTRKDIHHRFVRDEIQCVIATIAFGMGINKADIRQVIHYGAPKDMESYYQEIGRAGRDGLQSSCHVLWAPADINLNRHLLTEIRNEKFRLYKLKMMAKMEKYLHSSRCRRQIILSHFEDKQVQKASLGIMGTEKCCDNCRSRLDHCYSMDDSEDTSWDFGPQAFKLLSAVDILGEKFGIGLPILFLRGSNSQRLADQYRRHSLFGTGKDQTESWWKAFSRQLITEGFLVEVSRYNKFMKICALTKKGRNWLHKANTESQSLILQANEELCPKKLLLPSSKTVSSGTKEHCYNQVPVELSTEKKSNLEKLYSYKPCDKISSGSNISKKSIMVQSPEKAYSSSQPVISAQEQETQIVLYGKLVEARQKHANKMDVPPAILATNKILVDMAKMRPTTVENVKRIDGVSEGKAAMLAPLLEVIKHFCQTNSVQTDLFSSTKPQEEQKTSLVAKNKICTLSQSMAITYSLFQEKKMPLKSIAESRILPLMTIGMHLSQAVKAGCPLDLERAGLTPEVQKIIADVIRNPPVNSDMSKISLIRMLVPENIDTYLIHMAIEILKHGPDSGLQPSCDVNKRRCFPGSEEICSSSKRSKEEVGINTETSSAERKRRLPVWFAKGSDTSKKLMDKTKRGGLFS
Outline: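 Kinetic fluorescence unwinding readout (525/598 nm) of a forked duplex oligonucleotide substrate, 100 nM, with 2 mM ATP and 20 nM WRN. Compounds were added 15 min before substrate at room temperature. Activity was scaled between uninhibited enzyme and buffer-only controls.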

[11] = qHTS for Inhibitors of WRN Helicase: Thiazole Orange DNA Binding Counterscreen (AID 720499; active means well fitted curve in the direction sought with a large enough effect; inconclusive means small, poorly fitted or top-dose-only effect, or another doubt; inactive means no such curve, though single readings can be large; an effect the other way counts as inactive or inconclusive;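 further: drop in dye fluorescence marks compound binding to DNA; potency means the concentration at half of the fitted maximal effect; nearly all actives have a fitted effect of over 60% in size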)
Outline: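 Dye-displacement counterscreen: 50 nM DNA + 100 nM ThO, cpd added by pintool, 15 min RT, fluorescence ex 480/em 530 nm.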

[12] = biological target: 3',5'-cyclic-AMP phosphodiesterase 4B (Homo sapiens) (UniProt Q07343); assay: qHTS Assay for Inhibitors of PDE-IV (AID 607; active means well fitted activation curve with a large enough effect in the main read-out, with a control signal flat, not every such curve was filed as active; inconclusive means small, poorly fitted or top-dose-only effect, or effect the other way, or a change in a side signal; further: potency means the concentration at half of the fitted maximal effect; on activation (PDE inhibition): % of control where 0% means no effect); settings: HEK293 ACTOne CNG channel cells, membrane potential fluorescence; activation (PDE inhibition): at 22.9 µM (top of the series)
Chain of UniProt Q07343 (Q07343 whole entry, looked up): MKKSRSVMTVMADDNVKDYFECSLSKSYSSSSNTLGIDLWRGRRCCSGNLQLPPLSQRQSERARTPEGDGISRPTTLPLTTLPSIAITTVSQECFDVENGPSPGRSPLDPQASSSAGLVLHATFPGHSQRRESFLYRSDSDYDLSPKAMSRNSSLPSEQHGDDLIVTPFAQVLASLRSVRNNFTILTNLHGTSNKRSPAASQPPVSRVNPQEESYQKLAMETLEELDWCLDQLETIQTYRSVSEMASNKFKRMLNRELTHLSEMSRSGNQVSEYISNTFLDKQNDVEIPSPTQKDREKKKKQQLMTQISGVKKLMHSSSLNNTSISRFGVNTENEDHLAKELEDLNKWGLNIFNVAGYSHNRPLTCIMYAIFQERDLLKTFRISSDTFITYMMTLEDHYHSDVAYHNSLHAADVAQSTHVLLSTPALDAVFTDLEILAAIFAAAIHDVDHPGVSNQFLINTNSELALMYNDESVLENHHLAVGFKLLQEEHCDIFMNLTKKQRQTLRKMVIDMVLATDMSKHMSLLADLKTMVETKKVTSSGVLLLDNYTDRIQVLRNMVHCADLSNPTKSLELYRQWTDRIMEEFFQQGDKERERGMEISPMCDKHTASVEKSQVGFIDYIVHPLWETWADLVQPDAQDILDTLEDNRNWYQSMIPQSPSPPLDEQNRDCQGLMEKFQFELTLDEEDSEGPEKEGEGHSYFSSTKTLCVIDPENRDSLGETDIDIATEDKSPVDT
Outline: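 Cell-based read-out of cAMP via a modified cyclic nucleotide-gated channel and membrane potential dye (535/590 nm) in HEK293 cells expressing PDE4 endogenously. Compounds tested up to 22.9 uM final; 100 uM RO 20-1724 reference.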

[13] = biological target: Mitogen-activated protein kinase 10 (Mus musculus) (UniProt Q61831); assay: JNK3 AlphaScreen Assay (AID 530); settings: JNK3 lysate, c-Jun phosphorylation; activity change, negative = inhibition: at 57.1 µM (top of the series);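 further: kinase came from lysate of stimulated human HepG2 cells; signal reports phosphorylation of biotinylated GST-cJun 1-79 at Ser73 with 10 µM ATP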; further: potency means the concentration at half of the fitted maximal effect; on activity change, negative = inhibition: on the % scale 0 is the no-effect control and ±100 the full control effect
Outline: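 Activity was read by AlphaScreen after JNK3-containing HepG2 lysate (cytokine pre-activated) phosphorylated biotinylated GST-cJun with 10 uM ATP at room temperature. Phospho-Ser73 cJun antibody with Protein-A acceptor beads provided detection.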

[14] = biological target: Cytochrome P450 3A4 (Homo sapiens) (UniProt P08684); assay: qHTS Assay for Inhibitors and Substrates of Cytochrome P450 3A4 (AID 884; active means well fitted curve in the direction sought with a large enough effect; inconclusive means small, poorly fitted or top-dose-only effect, or another doubt; inactive means no such curve, though single readings can be large; an effect the other way counts as inactive or inconclusive; further: potency means the concentration at half of the fitted maximal effect; nearly all actives have a fitted effect of over 50% in size)
Chain of UniProt P08684 (P08684 whole entry, looked up): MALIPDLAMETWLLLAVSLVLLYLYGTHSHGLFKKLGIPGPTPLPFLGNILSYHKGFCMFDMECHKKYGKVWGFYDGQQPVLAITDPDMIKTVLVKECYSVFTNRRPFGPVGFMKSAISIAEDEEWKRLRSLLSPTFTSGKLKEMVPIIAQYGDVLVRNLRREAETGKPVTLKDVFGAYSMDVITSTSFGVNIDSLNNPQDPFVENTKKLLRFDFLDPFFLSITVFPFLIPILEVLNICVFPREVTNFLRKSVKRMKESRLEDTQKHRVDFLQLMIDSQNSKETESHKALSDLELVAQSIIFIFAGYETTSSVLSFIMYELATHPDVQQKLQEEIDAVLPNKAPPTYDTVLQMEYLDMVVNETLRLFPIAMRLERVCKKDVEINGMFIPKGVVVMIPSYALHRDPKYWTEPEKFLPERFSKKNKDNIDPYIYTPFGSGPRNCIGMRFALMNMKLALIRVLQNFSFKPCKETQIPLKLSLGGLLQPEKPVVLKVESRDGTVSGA
Outline: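 Luminescent readout of luciferin produced by CYP3A4 (20 nM) dealkylation of Luciferin-PPXE, 25 uM (its KM). NADPH-driven reaction ran 60 min at RT after 10 min compound preincubation; data scaled to 57 uM ketoconazole as 100% inhibition.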

[15] = biological target: Cytochrome P450 3A4 (Homo sapiens) (UniProt P08684); assay: qHTS Assay for Activators of Cytochrome P450 3A4 (AID 885; active means well fitted curve in the direction sought with a large enough effect; inconclusive means small, poorly fitted or top-dose-only effect, or another doubt; inactive means no such curve, though single readings can be large; an effect the other way counts as inactive or inconclusive; further: potency means the concentration at half of the fitted maximal effect; nearly all actives have a fitted effect of over 65% in size)
Outline: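 Luminescent readout of luciferin formed from 25 uM Luciferin-PPXE (KM level) by 20 nM CYP3A4 in 200 mM KPO4, with 60 min NADPH-driven reaction at room temperature after 10 min compound exposure. Ketoconazole (57 uM) defined 100% inhibition.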
Tags describe the fitted curve by direction and shape or compound fluorescence and quenching.

O=C(Oc1oc(-c2ccco2)nc1C=Nc1ccccc1)c1ccoc1
active: activity change, negative = inhibition [2] -123%
inconclusive: activity change, negative = inhibition [1] -90.5% [inhibitor] | activity, negative = inhibition [3] -69.6% [inhibitor] [at 17.2 µM] | Potency [4] 4.74 µM [inhibitor, full curve] | Potency [5] 2 µM [inhibitor, partial curve] | Potency [6] 2.24 µM [inhibitor, partial curve, poor fit] | Potency [7] 29.1 µM [inhibitor, single point] | Potency [8] 0.0041 µM [rising, full curve, poor fit]

COc1cc(N=Nc2cccc(S(N)(=O)=O)c2)c2ccccc2c1N
inconclusive: activity change, negative = inhibition [1] 60.6% [activator] [at 7.69 µM] | activity change, negative = inhibition [2] -81.5% [inhibitor] [at 7.69 µM] | activity, negative = inhibition [3] -45% [inhibitor] | Potency [9] 3.16 µM [inhibitor, single point] | Potency [10] 24.1 µM [inhibitor, partial curve] | Potency [11] 30.4 µM [inhibitor, partial curve]

CCNc1ncc2nc(-c3ccccc3)c(=O)n(Cc3cccc(OC)c3)c2n1
inconclusive: activity change, negative = inhibition [1] 110% [activator] [at 7.69 µM] | activity change, negative = inhibition [2] 77.8% [activator] [at 7.69 µM] | activity, negative = inhibition [3] 141% [activator] | Potency [12] 10 µM [activator, partial curve]
active: Potency [9] 3.16 µM

COc1ccc(C(=O)[C@H](Br)[C@H](Br)C(=O)O)cc1
inactive: activity change, negative = inhibition [13] 4.5% [at 11.4 µM]
inconclusive: activity change, negative = inhibition [1] 70.1% [activator] [at 7.69 µM] | activity change, negative = inhibition [2] -126% [inhibitor] [at 7.69 µM] | activity, negative = inhibition [3] -53.1% [inhibitor]

NS(=O)(=O)c1ccc(N=Nc2cc3ccccc3c(C(=O)O)c2O)cc1
inconclusive: activity change, negative = inhibition [1] -45.5% [inhibitor] [at 7.69 µM] | activity change, negative = inhibition [2] -54.1% [inhibitor] [at 7.69 µM] | activity, negative = inhibition [3] -49.3% [inhibitor] | Potency [13] 2.51 µM [inhibitor, partial curve] | Potency [14] 3.16 µM [inhibitor, single point] | Potency [9] 3.16 µM [inhibitor, partial curve]

COc1ccc(-c2nc3cnc(N4CCNCC4)nc3n(C)c2=O)cc1
inconclusive: activity change, negative = inhibition [1] 123% [activator] [at 7.69 µM] | activity change, negative = inhibition [2] 142% [activator] [at 7.69 µM] | activity, negative = inhibition [3] 178% [activator] | Potency [9] 3.16 µM [fluorescent, partial curve]
inactive: Potency [12]

Cc1noc(C)c1-c1ccc2ncnc(N(C)Cc3ccco3)c2c1
active: Potency [9] 1.58 µM
inconclusive: activity change, negative = inhibition [1] 36% [activator] [at 7.69 µM] | activity change, negative = inhibition [2] -103% [inhibitor] [at 7.69 µM] | activity, negative = inhibition [3] -56.5% [inhibitor] | Potency [12] 10 µM [activator, single point]

CCNc1ncc2nc(-c3ccccc3)c(=O)n(Cc3cccs3)c2n1
active: Potency [9] 3.16 µM
inconclusive: activity change, negative = inhibition [1] 41.7% [activator] [at 7.69 µM] | activity change, negative = inhibition [2] 83.7% [activator] [at 7.69 µM] | activity, negative = inhibition [3] 81.7% [activator] | Potency [12] 10 µM [activator, partial curve]

CCNc1ncc2nc(-c3cccs3)c(=O)n(CCc3ccccc3)c2n1
active: activity, negative = inhibition [3] 98% [activator] | Potency [9] 1 µM
inconclusive: activity change, negative = inhibition [1] 51.8% [activator] [at 7.69 µM] | activity change, negative = inhibition [2] 46.8% [activator] [at 7.69 µM] | Potency [12] 3.16 µM [activator, partial curve]

CN1CCN(c2ncc3nc(-c4ccc(Cl)cc4)c(=O)n(Cc4cccs4)c3n2)CC1
inconclusive: activity change, negative = inhibition [2] 154% [activator] [at 7.69 µM] | activity, negative = inhibition [3] 227% [activator] | Potency [13] 5.01 µM [activator, partial curve] | Potency [15] 12.6 µM [activator, partial curve] | Potency [9] 3.16 µM [fluorescent, side channel, partial curve]
active: activity change, negative = inhibition [1] 140% [activator] [at 7.69 µM]
